# Results from PubChem BioAssay AID492948 (National Center for Advancing Translational Sciences (NCATS), 2010).
# This list was built around the results that the source calls inconclusive (neither active nor inactive); the mix of calls is not that of the screen. Potencies of inconclusive entries are left out as doubtful fits. Activity calls are given as the source filed them. The call rests on the fitted dose curve; in most records, active means well fitted activation curve with a large enough effect; inconclusive means small, poorly fitted or top-dose-only effect; inactive means no such curve, though single readings can be large or run the other way.
# Test: qHTS Assay for Agonists of the Relaxin Receptor RXFP1: V1B Hit Validation;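 further: counter-screen in HEK293 cells expressing V1B rather than RXFP1 for selectivity; nearly all actives have a fitted effect of over 65% in size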;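 on activation: cAMP accumulation with PDE4 inhibitor Ro 20-1724 present during compound exposure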
# Settings: HEK293 V1B cells, cAMP TR-FRET, 30 min; series mostly up to 115 µM
# How it was run: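 cAMP accumulation, read by TR-FRET competition after lysis, in V1B-expressing HEK293 cells given compound for 30 min at 37C with Ro 20174 present. Responses scaled between buffer basal and 29 nM porcine relaxin; Hill-equation EC50.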
# Potency means the concentration at half of the fitted maximal effect; tags describe the fitted curve by direction and shape.
row,SMILES,Potency
1,CCOc1ccccc1OCC(=O)NNC(=O)Cn1cnc2c1c(=O)n(C)c(=O)n2C,"inconclusive [activator, partial curve]"
2,O=C(NCCCN1CCCC1=O)c1c(O)nc2ccccn2c1=O,"inconclusive [activator, partial curve]"
3,Cc1cc(CNC(=O)COc2ccc([N+](=O)[O-])cc2)c2ccccc2n1,"inconclusive [activator, partial curve]"
4,COc1cc(/C=N/NC(=O)Cn2cnc3c2c(=O)n(C)c(=O)n3C)ccc1O,"inconclusive [activator, partial curve]"
5,COc1ccccc1NC(=O)c1sc2nc3n(c(=O)c2c1C)CCC3,"inconclusive [activator, partial curve, poor fit]"
6,CNc1ccc(/C=C(\C#N)C(=O)Nc2ccccn2)cc1[N+](=O)[O-],"inconclusive [activator, full curve]"
7,CC(=O)Nc1c2c3c(cccc3n(C)c1=O)C(=O)c1ccccc1-2,"inconclusive [activator, partial curve]"
8,COc1ccc(OC)c(CNC(=O)C2CCN(C(=O)N(C)C)CC2)c1,inactive
9,CC(=O)CCCCn1c(=O)c2c(ncn2C)n(C)c1=O,"inconclusive [activator, partial curve]"
10,CN(C)S(=O)(=O)c1ccc(C(=O)OCC(=O)Nc2cccnc2Cl)cc1,active: 19.4 µM
11,CCN(c1ccccc1)S(=O)(=O)c1ccc(OC)c(NC(=O)C2CC(=O)N(Cc3ccccc3)C2)c1 (stereo not given),inactive
12,Cn1cnnc1SCC(=O)Nc1cc(S(=O)(=O)N2CCCCC2)ccc1Cl,"inconclusive [activator, partial curve]"
13,COc1ccc(C(=O)COC(=O)Cn2cnc3c2c(=O)n(C)c(=O)n3C)c(OC)c1,"inconclusive [activator, partial curve]"
14,Cc1ccccc1NC(=O)CNc1ccccc1C(=O)NCc1ccco1,inactive
15,CCS(=O)(=O)c1nc(S(=O)(=O)c2ccc(C)cc2)c(N2CCN(C)CC2)s1,"inconclusive [activator, partial curve]"
16,Cc1cc(C)nc(/N=C(\N)Nc2ccc(S(=O)(=O)Nc3nccc(C)n3)cc2)n1,"inconclusive [activator, partial curve]"
17,COc1ccc(Cl)cc1-c1n[nH]c(=S)o1,active: 4.35 µM
18,Cc1c(CCOC(=O)c2cc([N+](=O)[O-])ccc2Cl)sc[n+]1CCCCS(=O)(=O)[O-],"inconclusive [activator, partial curve, poor fit]"
19,Cc1cccc(N2C(=O)C(O)=C(C(=O)c3cccs3)C2c2ccc(C(C)C)cc2)n1 (stereo not given),"inconclusive [activator, partial curve]"
20,COC(=O)c1c(N2C(=O)CC(Sc3ncccc3C(=O)O)C2=O)sc(C)c1C (stereo not given),inactive
21,Cc1nn(CCCC(=O)NCCc2ccccc2)c(=O)c2nccn12,"inconclusive [activator, partial curve]"
22,Cc1c(Cl)cccc1NC(=O)CCCN1C(=O)c2cccnc2C1=O,"inconclusive [activator, partial curve]"
23,CN(C)c1ccc(NC(=O)C2C3C=CC(C3)C2C(=O)O)cc1 (stereo not given),inactive
24,Cc1cc(C)n2nc(C(=O)Nc3ccc4c(c3)OCCO4)nc2n1,active: 6.15 µM
25,CC1CCN(S(=O)(=O)c2ccc3nc(N4CCN(c5ccccc5)CC4)ccc3c2)CC1,active: 13.8 µM
26,Cn1c(=O)c2sccc2n2c(CCCC(=O)NCc3cccnc3)nnc12,active: 19.4 µM
27,Cn1c(=O)c2c(nc(Cc3ccc(N)cc3)n2C)n(C)c1=O,"inconclusive [activator, partial curve]"
28,CN1CCN(C(=O)CCc2nnc3ccc(N4CCC5(CC4)OCCO5)nn23)CC1,"inconclusive [activator, partial curve, poor fit]"
29,CC1CCCCN1CCNC(=O)CCc1nnc2n(Cc3ccccc3)c(=O)c3ccccc3n12 (stereo not given),"inconclusive [activator, partial curve]"
30,CCOC(=O)/C(C#N)=C/c1c(N2CCN(CC)CC2)nc2c(C)cccn2c1=O,"inconclusive [activator, partial curve, poor fit]"
